{
  "source": "patent US6645774B1",
  "about": "(Synaptic Pharmaceutical Corporation, priority 1994, dated 2003)",
  "key": {"human Y5 receptor [1]": {"molecular_target": "T1, human Y5 receptor (Homo sapiens, UniProt Q15761)", "T1 sequence (Q15761 1-445)": "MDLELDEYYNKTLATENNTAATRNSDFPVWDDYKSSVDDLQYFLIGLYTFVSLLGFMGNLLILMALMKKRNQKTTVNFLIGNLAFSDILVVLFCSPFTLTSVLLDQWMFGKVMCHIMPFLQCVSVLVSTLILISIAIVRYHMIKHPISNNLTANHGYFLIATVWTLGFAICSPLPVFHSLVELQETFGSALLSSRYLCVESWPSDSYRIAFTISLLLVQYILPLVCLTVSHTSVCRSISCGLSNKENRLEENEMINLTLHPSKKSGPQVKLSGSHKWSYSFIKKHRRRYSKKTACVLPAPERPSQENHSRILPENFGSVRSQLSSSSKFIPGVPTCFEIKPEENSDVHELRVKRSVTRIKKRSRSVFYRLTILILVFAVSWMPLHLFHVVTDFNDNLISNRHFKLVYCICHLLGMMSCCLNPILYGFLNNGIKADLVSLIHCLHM", "test": "Radioligand binding to human Y5 receptor stably expressed in LM(tk-) cells", "conditions": "read-out: Binding Affinity (Ki (nM) vs. ^125I-PYY) Human Receptor Y5; stably transfected cells, compounds"}, "human Y5 receptor [2]": {"molecular_target": "T1, human Y5 receptor", "test": "Radioimmunoassay of forskolin-stimulated cAMP, LM(tk-) cells stably expressing human Y5", "format": "cell-based", "design": "apparent Kd; pKd; other: human Y5 in COS-7, n=4; The isolated clone (CG-19) turned out to contain a full length cDNA cloned in the correct orientation for functional expression; The longest open reading frame encodes a 455 amino acid protein", "conditions": "block of NPY-induced inhibition of cAMP; compound 28: preliminary experiments"}, "rat Y5 receptor [3]": {"molecular_target": "rat Y5 receptor", "test": "Radioligand binding to cloned rat Y5 receptor (COS-7 membranes)", "conditions": "cloned rat Y-type receptors; expression system not given"}, "rat Y5 receptor [4]": {"system": "rat Y5 receptor", "test": "Radioimmunoassay of forskolin-stimulated cAMP, 293 cells stably expressing rat Y5"}, "human Y5 receptor [5]": {"molecular_target": "T1, human Y5 receptor", "test": "^125I-PYY binding to cloned human Y5 receptor (COS-7 membranes)", "design": "apparent Kd; pKd; other: human Y5 in COS-7, n=4; The isolated clone (CG-19) turned out to contain a full length cDNA cloned in the correct orientation for functional expression; The longest open reading frame encodes a 455 amino acid protein", "conditions": "cloned human Y-type receptors; expression system not given"}, "human Y5 receptor [6]": {"system": "human Y5 receptor", "test": "Radioligand binding to human Y5 receptor stably expressed in LM(tk-) cells", "conditions": "1 nM to 100 μM, over the entire concentration range, 0.08 nM ^125I-PYY"}, "human Y5 receptor [7]": {"system": "human Y5 receptor", "test": "Radioimmunoassay of forskolin-stimulated cAMP, LM(tk-) cells stably expressing human Y5", "format": "cell-based", "conditions": "forskolin, suspended and replated LM(tk-) with human Y5, n=87"}, "human Y5 receptor [8]": {"system": "human Y5 receptor", "test": "Radioimmunoassay of forskolin-stimulated cAMP, NIH-3T3 cells stably expressing human Y5", "format": "cell-based", "conditions": "10 uM forskolin, NIH-3T3 with human Y5, n=2"}},
  "data": [
    {"molecule": "2-(Naphthalen-1-yl)-3-phenylpropane-1,2-diamine [Compound 28]", "values": [
      {"measurement": "Ki", "setting": "human Y5 receptor [1]", "value": 19000, "unit": "nM"},
      {"measurement": "functional character at the human Y5 receptor", "setting": "human Y5 receptor [2]", "value": "Y5 receptor antagonist"}
    ]},
    {"molecule": "NC(N)=NCCC[C@@H](NC(=O)C(c1ccccc1)c1ccccc1)C(=O)NCc1ccc(O)cc1", "note": "[BIBP 3226]", "values": [
      {"measurement": "Ki", "setting": "rat Y5 receptor [3]", "value": 25, "unit": "µM"},
      {"measurement": "antagonism of NPY- or PP-induced activation", "setting": "rat Y5 receptor [4]; rat Y5, concentrations up to 1 μM", "value": "no evidence for antagonism"},
      {"measurement": "Ki", "setting": "human Y5 receptor [5]", "value": 49, "unit": "µM"}
    ]},
    {"molecule": "Nc1nc2c(ncn2[C@@H]2O[C@H](COP(=O)(O)OP(=O)(O)NP(=O)(O)O)[C@@H](O)[C@H]2O)c(=O)[nH]1", "note": "[Gpp(NH)p, reference compound]", "values": [
      {"measurement": "change in ^125I-PYY radioligand binding", "setting": "human Y5 receptor [6]", "value": "−85", "unit": "fmol/mg membrane protein"}
    ]},
    {"molecule": "C=C[C@@]1(C)CC(=O)[C@]2(O)[C@@]3(C)[C@@H](O)CCC(C)(C)[C@@H]3[C@H](O)[C@H](OC(C)=O)[C@@]2(C)O1", "note": "[forskolin]", "values": [
      {"measurement": "increase in cAMP accumulation", "setting": "rat Y5 receptor [4]; 10 μM forskolin, 5 minute period, 293 cells with rat Y5", "value": 10, "unit": "fold"},
      {"measurement": "average increase in [cAMP]", "setting": "human Y5 receptor [7]", "value": 7.4, "unit": "fold"},
      {"measurement": "average increase in [cAMP]", "setting": "human Y5 receptor [8]", "value": 21, "unit": "fold"}
    ]}
  ]
}
